Results as given in the supplement of paper PMC3334620.
In all, about 33,000 sequences were measured (“E-score (-0.5 to 0.5)”: median about -0.054, highest 2% from about 0.35 on). The list shows a part of the results.

Target: T1, Stb5 (UniProt P38699)
T1 sequence: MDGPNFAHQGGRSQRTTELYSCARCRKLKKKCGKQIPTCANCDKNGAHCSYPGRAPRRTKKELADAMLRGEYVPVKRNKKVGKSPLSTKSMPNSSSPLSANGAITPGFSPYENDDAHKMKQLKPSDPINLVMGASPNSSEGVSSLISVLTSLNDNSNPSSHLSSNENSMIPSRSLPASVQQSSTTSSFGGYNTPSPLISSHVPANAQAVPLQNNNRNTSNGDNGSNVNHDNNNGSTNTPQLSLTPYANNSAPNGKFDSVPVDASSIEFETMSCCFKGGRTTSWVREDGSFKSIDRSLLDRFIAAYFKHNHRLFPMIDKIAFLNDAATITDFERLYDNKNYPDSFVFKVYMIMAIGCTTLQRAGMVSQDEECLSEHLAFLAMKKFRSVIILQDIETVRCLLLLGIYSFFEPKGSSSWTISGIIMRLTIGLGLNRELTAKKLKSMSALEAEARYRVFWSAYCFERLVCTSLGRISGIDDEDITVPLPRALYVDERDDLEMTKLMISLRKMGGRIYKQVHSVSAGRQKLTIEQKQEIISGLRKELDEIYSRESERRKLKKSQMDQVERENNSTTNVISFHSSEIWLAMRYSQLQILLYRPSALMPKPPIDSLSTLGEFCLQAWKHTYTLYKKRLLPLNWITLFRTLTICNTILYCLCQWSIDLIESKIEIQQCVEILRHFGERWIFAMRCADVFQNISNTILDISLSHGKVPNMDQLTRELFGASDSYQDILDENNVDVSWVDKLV
Test: PBM E-score (8-mer binding enrichment) (E-score (-0.5 to 0.5)); higher = stronger / more preferred TF binding; most listed sequences are background and not binding sites
Conditions: protein concentration: 200 nM; construct: GST-full length
Protocol: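 Universal 'all 10-mer' protein binding microarrays (Agilent AMADID 015681) probed with GST-tagged S. cerevisiae TFs (full-length or DBD) made by in vitro transcription/translation (PURExpress), about 100-200 nM. Bound TF was detected with fluorescent anti-GST. Each ungapped 8-mer (which stands for itself and its reverse complement) is scored by the PBM enrichment score (E-score), a modified Wilcoxon-Mann-Whitney statistic from -0.5 to +0.5, computed with the Universal PBM Analysis Suite. Scale: above 0.35 generally sequence-specific binding.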

| Sequence | PBM E-score |
| --- | --- |
| AACCGTTA | -0.101 |
| GACCCATA | 0.0505 |
| GATAATGA | -0.00701 |
| AGGTGTCC | -0.164 |
| AAGAAAGT | 0.0793 |
| ACTCTATA | 0.12 |
| CATCGTAA | -0.00169 |
| GGTCATCA | -0.138 |
| ACTCACGC | -0.19 |
| ACGATCGG | 0.298 |
| CCTGAGAC | -0.115 |
| CGCCGTTC | 0.306 |
| AGGGACCC | -0.199 |
| GAGCTACA | -0.044 |
| CATATATA | 0.0805 |
| AGTAAAGC | -0.087 |
| TCCTTTCA | -0.109 |
| AACAGGAC | -0.151 |
| AACCGCCG | 0.362 |
| AGACAATG | -0.135 |
| ATTTCGCA | 0.0103 |
| AAGGTCTG | -0.17 |
| CCAATTCG | -0.018 |
| AGTAAGCC | -0.0363 |
| AGATAAGC | -0.142 |

| Sequence | PBM E-score |
| --- | --- |
| CGTAAGTA | 0.0307 |
| CTCACATC | -0.222 |
| CCCAAAGG | 0.00351 |
| CAACCAAA | -0.018 |
| AGGGAGAA | -0.243 |
| ACAAGTAG | -0.0363 |
| AACTCTAC | -0.243 |
| CCACTACA | -0.14 |
| CATTGCTA | -0.116 |
| CCTCTTAA | 0.00462 |
| GCTCCGAC | 0.271 |
| ATCTGGGC | -0.0319 |
| ATTCTGCA | -0.123 |
| ATGCGCCA | -0.08 |
| AGACGTTC | -0.202 |
| ACCTAAAG | 0.037 |
| GTCAAGAC | -0.0663 |
| CCAAACCG | 0.0404 |
| GACCGCAC | 0.18 |
| TGGCACCA | -0.218 |
| CTTATCGC | 0.0666 |
| ACGGTTCC | -0.0233 |
| ATTGTGGG | -0.183 |
| GCAGTCCA | -0.0621 |
| AGCGCGAT | -0.0144 |

| Sequence | PBM E-score |
| --- | --- |
| ATATGTAA | -0.222 |
| ATAATGGG | -0.107 |
| CAAGATAA | 0.0613 |
| CGGACGAC | 0.0486 |
| ACTCCGTA | 0.35 |
| AGACCAGC | -0.285 |
| CTGTAATC | -0.0549 |
| AGAGATCA | -0.288 |
| ATCGAAAT | -0.0708 |
| ACGGAACT | 0.266 |
| CAAGTTCG | -0.00682 |
| ATCGACTA | -0.257 |
| CAAGATGA | -0.286 |
| TAACGGGA | 0.179 |
| ACCCAAGG | 0.0955 |
| TATCAGCA | 0.00155 |
| ACTGGTCT | -0.216 |
| CGCAGTTA | 0.359 |
| AATAAGCC | 0.183 |
| CCGCCTGA | 0.262 |
| ATGAGCAT | -0.314 |
| CAGGTTTA | -0.0038 |
| AGCGATGA | 0.0899 |
| ATGAGAAA | -0.172 |
| TAAGACGA | -0.179 |

| Sequence | PBM E-score |
| --- | --- |
| CAGATATC | -0.0024 |
| ACAAAGTC | -0.0542 |
| ACGGTGCC | 0.372 |
| AGTGTCAA | -0.277 |
| ACTAGACT | -0.108 |
| CCCGCACG | 0.325 |
| ACCTAGGT | -0.115 |
| AGTGAAAA | 0.0421 |
| CCGCTGAC | 0.312 |
| GAATCACC | 0.1 |
| GTATCGCA | 0.00152 |
| CGGGACCG | 0.259 |
| GTAGCCGA | -0.0178 |
| CACCTGCA | -0.159 |
| ACAGACGC | 0.113 |
| ACCCTTTC | -0.0486 |
| GCCTCGTA | -0.0888 |
| GAACGTGA | -0.134 |
| CATGCTAA | -0.271 |
| GACGCTCC | 0.0687 |
| GGGCGCCC | 0.147 |
| CGTCGGAG | 0.343 |
| CTAATGCA | -0.185 |
| ATAAACCG | 0.0621 |
| CACGTCTC | -0.106 |

| Sequence | PBM E-score |
| --- | --- |
| GCCTGAAA | -0.0422 |
| GCGCACCC | 0.162 |
| ACACACGG | 0.192 |
| AACCGACC | 0.244 |
| GAATAACC | 0.122 |
| ATGCTGAG | -0.167 |
| CAACGCAG | -0.151 |
| TAACTGGA | -0.116 |
| GCCGTGCA | 0.133 |
| GGCCTACC | 0.0269 |
| ATGAGTAC | -0.0338 |
| CCTAGGTC | -0.15 |
| AACTTTTA | 0.0894 |
| CCTCGTAC | -0.0393 |
| CTGTCAAG | -0.196 |
| CCTCAAAA | -0.0199 |
| GCTTTACC | 0.0586 |
| CTGACAAG | -0.0926 |
| GGAACCCC | 0.19 |
| CTAATATA | 0.12 |
| AAGACGCC | 0.178 |
| AGGCCAGG | -0.259 |
| ATCAAAAG | -0.0706 |
| TCAATCGA | -0.112 |
| ATCCCAAA | -0.115 |

| Sequence | PBM E-score |
| --- | --- |
| AGAAACAG | -0.16 |
| CAGAGTGG | -0.19 |
| AAAGTAGT | -0.142 |
| CATTAGGG | -0.205 |
| GATTACCA | 0.0331 |
| AGACGCCT | -0.304 |
| ACGTAGTG | -0.0954 |
| ACATCACA | -0.199 |
| AACTACTA | -0.067 |
| GCGTCAGA | -0.036 |
| GCCGATTA | 0.214 |
| ATTGCCCC | 0.14 |
| CCAGGCCC | -0.181 |
| CCTACTAC | 0.0452 |
| AAGATCGA | -0.116 |
| CTCGTCCA | -0.102 |
| AATGTGAT | -0.0209 |
| GTCATGAA | -0.103 |
| AGGCTACT | -0.218 |
| ACGGTCGC | 0.135 |
| GATTCACC | 0.23 |
| GTCGACCA | 0.14 |
| AGCGCACC | 0.12 |
| AGGGTGTA | -0.236 |
| AAATGAGG | -0.21 |

| Sequence | PBM E-score |
| --- | --- |
| GCCTCGCC | -0.169 |
| ATGTCGAC | -0.176 |
| AAACTCCG | 0.463 |
| GTATATAC | 0.107 |
| ACCTTTAA | -0.0406 |
| TCGACGCA | -0.196 |
| CTGTCATC | -0.0509 |
| CATTAAGC | -0.117 |
| CCGAACAC | 0.109 |
| GTGTAACA | 0.206 |
| TCGTAAGA | -0.0428 |
| AAGAGAAT | -0.0105 |
| ATTGCTAC | -0.00551 |
| AAGTATGA | -0.139 |
| CGGGAACC | 0.0496 |
| AAGTGTTC | -0.217 |
| GTAGTCAA | 0.0132 |
| GGATAGCC | -0.119 |
| GCCCCTAC | 0.076 |
| AGTTAAAA | 0.0662 |
| ACAAGGTA | -0.0411 |
| AATAGCGC | 0.217 |
